# ± gives the standard deviation of the averaged measurements. Some of the results follow.
# Tested on: PfAP2-LT AP2 domain (GST-tagged)
# Test: gcPBM binding intensity (ln(normalized median fluorescence intensity)); higher = stronger DNA binding
# How it was run: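 Plasmodium falciparum DNA-binding domains carrying a GST tag were expressed in E. coli and applied for 1 h, at about 25 μg on average, to an Agilent 4 × 180k array. The array held primer-extended double-stranded 36-bp intergenic genomic probes together with negative controls, and binding took place in 1× PBS with 1% milk, 0.2 mg/ml BSA, 0.5% salmon testes DNA and 0.03% Triton X-100. An Alexa488 anti-GST antibody detected bound protein, and the array was scanned at 488 nm. Binding intensity is taken as the highest Masliner-normalised natural-log median intensity across replicate spots of either probe orientation.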
row,Sequence,gcPBM binding intensity (ln)
1,TTGAAGAATAAATATGCACACATGCATATATTTTTA [CACACA_site5840],8.69 ± 0.35
2,AATAAAAAAAAACGCACACACAAATATATTCCATTC [CACACA_site1224],9.64 ± 0.24
3,CTCAAAAAATTTCATAGTACTTTAAAATACTATAAT [XGTACX_site1939],8.27 ± 0.35
4,ATATATATTTAAAACGCATGCCTTGTTATATATATA [TGCATGCA_site624],9.06 ± 0.53
5,CATATATATTTTATATGTACATATATATTTTATATA [XGTACX_site8665],8.76 ± 0.37
6,ATTACAAAAATATATAAACACACAAATATAATATAT [CACACA_site8962],9.02 ± 0.44
7,ATAAAATAAAACAACACACACGAATGTATAAATATA [CACACA_site4643],9.53 ± 0.36
8,AATAAAATACAAAAATGTACAAATATAATATACATA [XGTACX_site279],8.9 ± 0.49
9,TAATAATATAAATATGCACACAAATTATTACCCAAA [CACACA_site8805],8.99 ± 0.4
10,TATATATATAAATGAATGCACTTTAGAAAAAAGTAC,8.62 ± 0.46
11,ATATATATTATAATAACACACATATATTATATTATA [CACACA_site406],8.72 ± 0.35
12,TAGATATATAGAATTACACACTTTTCTATAATATGA [CACACA_site6475],8.51 ± 0.38
13,ACATACTCAAATAGCACACACATAAATAAAAATGTA [CACACA_site3864],9.4 ± 0.44
14,TAATATAAAATGATAAATGAATGTGATCATTTTATA [CACACA_negctrl_site1034],8.63 ± 0.45
15,AGATATTTTTCTTAAGTACACACTAAATAGAAACTA [CACACA_site44],8.48 ± 0.46
16,AGTCTGAATAAAATTACACACATATACCTATAAATA [CACACA_site6929],9.01 ± 0.45
17,TTTTTTTTTTTCAGTTGTACATTGGGAAAATATATA [XGTACX_site4416],8.4 ± 0.52
18,TTTAAAAAAATGAAATAAAAAAAAAATAAAATAAAA [XGTACX_negctrl_site316],8.37 ± 0.54
19,ATATATATAATTTGTACACACAAATATGCATATATA [CACACA_site3432],9.01 ± 0.31
20,AAATAATTTATATATTGTACAAATATTAAATGCGAA [XGTACX_site3390],8.71 ± 0.51
21,GGGTTGATATATATTTGTACATATTATTATTTATTA [XGTACX_site7116],9.11 ± 0.35
22,ATATATATATATTATGTGCGCATATACCATTTTAAT [GTGCAC_site9575],9.4 ± 0.18

row,Sequence,gcPBM binding intensity (ln)
1,TTTATTTTAACTTGTTCACACATTTGAATAAATAAA [CACACA_site5064],8.46 ± 0.39
2,AAAAATATATAAACACGTACACACACATATATGTAT [XGTACX_site7436],9.46 ± 0.2
3,ACATTTATATATAATTGTACCCTACATTCTCTTTTT [XGTACX_site189],8.9 ± 0.49
4,GAAAAAAAAAAAAAAAGAAAATTCATATTTTTAATA [XGTACX_negctrl_site513],7.99 ± 0.72
5,TACCAAAAAAAAAAAAAAAATTAAATAAATATGAAA [TGCATGCA_negctrl_site383],8.25 ± 0.61
6,TAAAAGAATAAAAGTAGTACTTTTTTTTATATTAGA [XGTACX_site368],8.29 ± 0.49
7,AAAAAGTGACTCCTTACACACTTTACATAATTTAGT [CACACA_site4606],8.99 ± 0.41
8,ATATTTTTATATTAGTGTACTTATTATAATGTATAG [XGTACX_site8185],8.82 ± 0.27
9,TCTTTTTTTTTTTATTGTACAAGAAAAGGAAAAAAT [XGTACX_site3717],8.05 ± 0.31
10,ATATAATATATATGGTGTACATTTTTTAGTGCTATT [XGTACX_site1662],8.85 ± 0.49
11,AAGTATTATTTTTATGCATGTGAAGTGCAAAATAAA [TGCATGCA_site198],8.58 ± 0.42
12,AGTACATTTTTTTTAATAGGAAAAAAAATATTTATT [TGCATGCA_negctrl_site575],8.29 ± 0.43
13,ATAATATGTAATATTACACACAATTCATCATTTTTT [CACACA_site3159],8.99 ± 0.36
14,ATATACACCGTTGAATGTACATAAATAATATTAATA [XGTACX_site2893],9.01 ± 0.54
15,AACCATTAATTCTCTACACACTTTTATTTTATTTAG [CACACA_site1769],8.93 ± 0.46
16,ACTTTATATTTTGAACGTACAAAAAAAAAATTATGT [XGTACX_site5588],8.53 ± 0.4
17,GCACATATATACATACATACATACATACATATGTAT [TGCATGCA_negctrl_site95],9.31 ± 0.43
18,ATCATAAAAGTATACACACATACATACATATGTACA [CACACA_site2641],9.15 ± 0.38
19,ATAAAGATTTTCCAAGCATGCCACATAGTGAGATAC [TGCATGCA_site594],8.85 ± 0.47
20,TTATATATTTTTACCATACACACATATAATAAATAT [CACACA_site3721],8.85 ± 0.54
21,TAAATATATATATATGTACACACTCCAATACATATA [CACACA_site8858],8.93 ± 0.39
22,TATATATATATTATATGTACATATTCCTATATATAC [XGTACX_site7071],9.04 ± 0.4

# Reference: the supplement of paper PMC11417369
